Laboratory results taken from PubChem BioAssay AID624417 (National Center for Advancing Translational Sciences (NCATS), 2012).
Among all 410,000 compounds or so, about 6,400 (1.6%) were called active. The shares of active, inactive and inconclusive entries below differ from those in the screen. Calls follow the shape of the dose curve; as a rule, active = well fitted inhibition curve with a large enough effect; inconclusive = small, poorly fitted or top-dose-only effect; inactive = no such curve, though single readings can be large or run the other way. Potencies of inconclusive entries are doubtful fits and often do not repeat.

Each compound was assayed against Glucagon-like peptide 1 receptor (Homo sapiens) (UniProt P43220) (assay: qHTS of GLP-1 Receptor Inverse Agonists (Inhibition Mode)). Details: HEK293 GLP-1R CRE-luciferase, luminescence, 24 h, GLP-1R form is constitutively active; activity change, negative = inhibition: at 38.3 µM (top of the series) unless noted.
Method in brief: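 Assay principle: reduced luminescence from a cAMP-responsive reporter in HEK293 cells co-expressing a constitutively active GLP-1R. Conditions: 24 hr compound incubation, 37 deg C, 5% CO2.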
% is scaled to controls: 0 for no effect and ±100 for the full control effect; potency is read from the fitted curve at half-maximal effect; tags tell the direction and shape of the fitted curve.
Also: nearly all actives have a fitted effect of over 55% in size.

Chain of UniProt P43220 (P43220 whole entry, looked up): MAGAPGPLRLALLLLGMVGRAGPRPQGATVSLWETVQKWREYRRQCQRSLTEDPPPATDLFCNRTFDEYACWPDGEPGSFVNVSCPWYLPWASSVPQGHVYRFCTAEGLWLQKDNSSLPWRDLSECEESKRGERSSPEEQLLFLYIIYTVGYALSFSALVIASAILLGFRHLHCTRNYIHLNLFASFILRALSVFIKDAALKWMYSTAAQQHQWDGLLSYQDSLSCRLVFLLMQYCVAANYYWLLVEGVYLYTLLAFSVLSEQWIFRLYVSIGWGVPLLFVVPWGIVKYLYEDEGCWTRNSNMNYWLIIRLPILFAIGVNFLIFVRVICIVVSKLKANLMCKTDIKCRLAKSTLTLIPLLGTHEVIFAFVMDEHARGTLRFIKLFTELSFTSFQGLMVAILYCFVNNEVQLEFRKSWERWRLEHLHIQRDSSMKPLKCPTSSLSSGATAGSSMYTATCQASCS

Potency, inconclusive:
CC(=O)N1c2ccc3ccccc3c2C(C)CC12CCCCC2 (stereo unspecified) 10 µM [inhibitor, partial curve, poor fit]
COc1ccc([C@@H]2Sc3ccccc3NC(=O)[C@@H]2O)cc1 5.62 µM [inhibitor, full curve, poor fit]
CCc1ccc(NS(=O)(=O)c2ccc(-c3cc(C)no3)cc2)cc1 11.2 µM [inhibitor, single point]
COc1cccc(Oc2cncnc2-c2ccc(OC)cc2O)c1 22.4 µM [inhibitor, single point]
Nc1ccc(Oc2ccccc2-c2ccccc2)cc1 10 µM [inhibitor, partial curve, poor fit]
Cc1ccc2nc(NNC(=O)c3ccc(S(=O)(=O)N4CCc5ccccc5C4)cc3)sc2c1 28.2 µM [inhibitor, single point]
O=C1/C(=C/c2cccnc2)SC(=S)N1Cc1ccco1 3.55 µM [inhibitor, partial curve, poor fit]
COc1ccccc1NC1=C(N2CCCCC2)C(=O)c2ccccc2C1=O 10 µM [inhibitor, partial curve, poor fit]
CCOc1ccc(NS(=O)(=O)c2cc(C(=O)N3CCCC3)ccc2Cl)cc1 12.6 µM [inhibitor, single point]
CS(=O)(=O)N1CCN(c2ccccc2NC(=O)Cc2ccc(Cl)cc2)CC1 3.98 µM [inhibitor, partial curve, poor fit]
CC1CCN(CCCNS(=O)(=O)c2cc(Br)cc3c2N(C(=O)C2CC2)CC3)CC1 22.4 µM [inhibitor, single point]
C/C(=N\OC(=O)c1c(-c2c(F)cccc2Cl)noc1C)c1nccs1 17.8 µM [inhibitor, partial curve, poor fit]
COc1ccc(C)cc1N(C(=O)c1cccc(F)c1)c1nc2ccccc2s1 28.2 µM [inhibitor, single point]
N#Cc1ccccc1NC(=O)COc1ccccc1C(=O)Nc1ccccc1 28.2 µM [inhibitor, single point]
O=C(N/N=C/C(Cl)=C/c1ccccc1)c1ccc2c(c1)OCO2 12.6 µM [inhibitor, partial curve, poor fit]
CCSc1ccccc1C(=O)Nc1cccc(OC)c1 28.2 µM [inhibitor, partial curve, poor fit]
Cc1ccc(S(=O)(=O)n2c(N)nc3ccccc32)cc1 31.6 µM [inhibitor, single point]
COc1cccc(CN(C)CCCn2cnc(C(=O)Nc3ccc(C)c(C)c3)n2)c1 28.2 µM [inhibitor, single point]
O=C(Nc1ccc(C(=O)N2CCN(c3ccccc3F)CC2)cc1)c1nsc2ccccc12 28.2 µM [inhibitor, single point]
Cc1cc(Cl)ccc1OC(C)C(=O)Nc1ccc(S(=O)(=O)Nc2cnc3ccccc3n2)cc1 (stereo unspecified) 22.4 µM [inhibitor, partial curve, poor fit]
CCC(CC)C(=O)N1N=C(c2ccc(NS(C)(=O)=O)cc2)CC1c1ccccc1 (stereo unspecified) 10 µM [inhibitor, partial curve, poor fit]
O=C(NCCc1ccco1)c1cc(COc2cccc(C(F)(F)F)c2)on1 10 µM [inhibitor, partial curve]
COc1ccccc1NS(=O)(=O)c1ccc(C(=O)NCC(c2ccccc2OC)N(C)C)cc1 (stereo unspecified) 10 µM [inhibitor, partial curve, poor fit]
CC(=O)c1ccc(NC(=O)c2noc3c2CCC3)cc1 1.78 µM [inhibitor, partial curve, poor fit]
CCOc1ccccc1CN1CCc2nc(N3CCN(C)CC3)ncc2C1 10 µM [inhibitor, partial curve, poor fit]
O=C(CCS(=O)(=O)c1ccc(Br)cc1)N1CCN(Cc2ccccc2)CC1 31.6 µM [inhibitor, single point]
COc1ccc(-c2cn3cccnc3n2)cc1NC(=O)Nc1cc(C)ccc1C 14.1 µM [inhibitor, single point]
CSc1nsc(SCc2ccc(F)cc2)n1 31.6 µM [inhibitor, single point]
Cc1ccc2c(c1)N(C)/C(=C/c1cccc[n+]1C)S2 7.94 µM [inhibitor, partial curve]
O=C(NCCc1ccccc1)C1CCN(Cc2cc3ccccc3n2Cc2ccccc2)CC1 22.4 µM [inhibitor, single point]
COc1ccc(CN(C(=O)c2ccco2)c2ccc(Br)cc2)cc1OC 31.6 µM [inhibitor, partial curve, poor fit]
COc1cc(NC(=O)N2CCc3nc(NCc4cccc(Oc5ccccc5)c4)ncc3C2)cc(OC)c1OC 28.2 µM [inhibitor, single point]

Potency, active:
Cc1cc(C(=O)COC(=O)C2=COCCO2)c(C)n1-c1cccc(F)c1 10 µM
CC1(C(=O)NCc2ccco2)Cc2c(-c3cccc(C(F)(F)F)c3)ccnc2O1 (stereo unspecified) 2.24 µM

Activity change, negative = inhibition, inactive:
COc1ccc(-c2onc(C)c2C)cc1S(=O)(=O)Nc1cccc(C#N)c1 -13.4%
C/C(=N\NC(=O)COc1ccccc1-c1ccccc1)c1cccnc1 -2.21%
CC(CC(=O)Nc1cccnc1)c1ccccc1 (stereo unspecified) 9.43%
CCc1cccc(CC)c1NC(=O)CSc1nnc(C2CC2)n1C 7.02%
N#C/C(=C(/O)c1ccc([N+](=O)[O-])cc1)c1nnc2n1CCCCC2 8.37%
O=C(/C=C/Sc1ccccc1)c1ccc(Cl)cc1 0%
O=C(Cn1ncc2c3ccccc3n(Cc3cccc(Cl)c3)c2c1=O)NCCCN1CCCCC1 -22.1%
